In publication PMC12136788:
This is one part of the list.

T1: UNK ZnF1-3 (human, UniProt Q9C0B0 31-174)
T1 sequence: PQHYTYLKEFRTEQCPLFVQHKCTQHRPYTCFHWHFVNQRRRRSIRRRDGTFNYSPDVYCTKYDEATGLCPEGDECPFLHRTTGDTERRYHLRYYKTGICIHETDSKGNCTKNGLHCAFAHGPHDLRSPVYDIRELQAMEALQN

B1: chr8:72619762:72619763:-_ENSMUSG00000002341_ENSMUST00000002412|mus_mus|motif|central (ssRNA)
RNA: GGGAGUUCUACAGUCCGACGAUCCAGGAGGAUUGAGACUUCAAGGACAUCUUUCUACAAUAGUGAGUUCGAGGCCAGCCGGGUUUGGGGGUUGGAGGUGUUGGAAUUGGGAGGGAGGAAGAAGAAAGGGGAAAAAAAAAGAAACAACAGAGGAUUGAGCAUCA
B2: chr9:95013113:95013114:-_ENSG00000196305_ENST00000443024|hu_hu|hu_hu_hu_mus_False|1_78 (ssRNA)
RNA: GGGAGUUCUACAGUCCGACGAUCCUCAGUCAGAAAGGGCGUGUAAGGGGCCAUCAGUCUGCAAAGAGAAAGCAGGACACUGAACAGUGUCUCCAGAGCCAUGACACAGUCUUCCACCCCACUCUCACCCUUUAACCUUCUGCGCAACAGAGGAUUGAGCAUCA
B3: chr7:127792870:127792871:+_ENSMUSG00000030884_ENSMUST00000033176|mus_mus|motif|central (ssRNA)
RNA: GGGAGUUCUACAGUCCGACGAUCUGUGAAGUGGUUCUGAACAAAGUAAUGUAAUUCCUCUGAUGUUAUCUUCCCCAUCCGGUAGUCAGGACAGUACAAAGGAUUAGCCAAGGCAUUCUUGUAGGCAACAUCAUGCAAGUUCUCCAACAGAGGAUUGAGCAUCA
B4: chr11:46405157:46405158:+_ENSG00000110492_ENST00000395566|hu_hu|motif|central (ssRNA)
RNA: GGGAGUUCUACAGUCCGACGAUCCACUUAGGGGUGGGGCUGGGGAGUGAGAGGGACAAGGCAGGGCAUGAUUGAUUAAAGCGGACGAGCAGACAGAAGGCACUGGUGGGUCACAUCUCGGGCCUGGGAGAGGGAGGGCGUGGGCAACAGAGGAUUGAGCAUCA
B5: chr6:31457689:31457690:+_ENSMUSG00000025609_ENSMUST00000142469|perfect_dup|motif|central (ssRNA)
RNA: GGGAGUUCUACAGUCCGACGAUCGAUGAGGUCUACCAGGUUGCCUUUAGGAGGAGUCAUGCUGUCAGGAAAGAAAUUUACGGAGGUGUCAAAGAGCUGAGUUCUUUGAGCAUAGGUGUGAUCCACAUCAGAAAAGCCCAGAGCCAACAGAGGAUUGAGCAUCA
B6: 47159233_47176799_437_3pUTR_ENSG00000149179_ENST00000278460|human|control|control (ssRNA)
RNA: GGGAGUUCUACAGUCCGACGAUCCUGGAUCUGGAAGGCAAAGAGGAAAUCUGAAAAAGACAUCAAGCAGUCCAUGGCAUCGUCCAUGAGCACAAUCCUGGCUGCUUUCUGAGUGAGCUCCAGCGGGAAAUCAGGACACAGUAACAACAGAGGAUUGAGCAUCA
B7: 134350459_134350579_3058_CDS_ENSG00000130723_ENST00000357304|human|control|control (ssRNA)
RNA: GGGAGUUCUACAGUCCGACGAUCUUCAAAUUUGGUGGCCUCGCGGCCAAAAGUGGCAUGGCCAGGGCCUUUGUCCUCCAAAGUGGUGGUGGAGGAGUUGGCCAGAGAGGCAUCGUUCUCUUCGUCCUCAUCCUUUUCUGCCGUCAACAGAGGAUUGAGCAUCA
B8: chr4:99338562:99338563:+_ENSG00000138698_ENST00000453712|hu_mus|FALSE|FALSE (ssRNA)
RNA: GGGAGUUCUACAGUCCGACGAUCCCCAGCCAGCUGCAGCUGGUGGUUAUUCGAUGGGAUCCAGGAGAGCACCCUUUGGAACACACUGCCUUUUCCUCCUUCAAAAAGUUUCUGCAUGGACUCAUCUCCAAGCAGUAAUAAAACCAACAGAGGAUUGAGCAUCA
B9: chr3:148802587:148802588:-_ENSG00000071794_ENST00000310053|hu_mus|hu_hu_hu_mus_False|48_48 (ssRNA)
RNA: GGGAGUUCUACAGUCCGACGAUCUCCAACAACUUGUCCUCUCAUAGUUCCAAAUAAAACCAAAUCUUGCUCUUCAUCACUCGUUAGAAAGUCAUCUGGAGGAAUAAUGUCUUGGAAUUCAAAAUGUGGCAAGAAAGUUGAGUACAACAGAGGAUUGAGCAUCA
B10: chr9:34402745:34402746:-_ENSG00000164970_ENST00000297620|hu_mus|FALSE|FALSE (ssRNA)
RNA: GGGAGUUCUACAGUCCGACGAUCAGGGACGACCAGCCUCGUCCGGGCCAUGACGUUGUUCUUCUUGGGUUGCUGGUUGACAGGGCUGCCCAUGCUGCCGUUCUUCAGGGAACCCUUCCGGGCCAGCUCCCGUUGCUUCUCCUCCAACAGAGGAUUGAGCAUCA
B11: chr11:21048517:21048518:+_ENSMUSG00000020134_ENSMUST00000093290|mus_mus|motif|central (ssRNA)
RNA: GGGAGUUCUACAGUCCGACGAUCAACCCAAUCACUUAGCUUAUAAACUUACAAUGCAGUCCUGGAGGACAGCUGCGGGUCGGAAGGUCCUUGGAAAAUAAGUCUGAUAUAGCCUUGUUCACCAGCCAACUGAUGUGCACAGAACAACAGAGGAUUGAGCAUCA
B12: chr7:151048522:151048523:+_ENSG00000013374_ENST00000566856|hu_mus|hu_hu_hu_mus_True|28_98 (ssRNA)
RNA: GGGAGUUCUACAGUCCGACGAUCCUGUUUCUUAUUUAUGACAAUUUUGAUGUAAUUUUCUUGAAAUCCGAAAGUUUCAGCUAUUUGACACCUCAGGUCUCUACCAGUGAUGUGCAAGCGGGUCUCCAACAAGCUUUUCUUAUCCAACAGAGGAUUGAGCAUCA
B13: chr4:107252891:107252892:+_ENSG00000164022_ENST00000394701|hu_hu|motif|central (ssRNA)
RNA: GGGAGUUCUACAGUCCGACGAUCAGGGUGUUUUCUAGCAGUUAUGAUGCAACCAAUUCGAAGAUCCAGACGGGAAACAUCGGUUGGCUUAGAGUCGGCACUUCCAGCUAUUGAUUGCUGUUUUUUCUCCUUCUUCUCUCCUUUCAACAGAGGAUUGAGCAUCA
B14: chr7:7679991:7679992:-_ENSG00000106399_ENST00000396682|hu_hu|hu_hu_hu_mus_False|78_88 (ssRNA)
RNA: GGGAGUUCUACAGUCCGACGAUCUGGGAUGAAUCUUUUCCAGCUUCCCUACGAAGCAGACAGGCUUGUCGAUAUACUGUGGUAACAUGCUGGCGUUGACGCGCGCUUUGGGGAGCUGCAUUAUGUCCUCCAUGAUUCUGCCGCCAACAGAGGAUUGAGCAUCA
B15: chr5:138721144:138721145:-_ENSMUSG00000029510_ENSMUST00000161827|mus_mus|motif|central (ssRNA)
RNA: GGGAGUUCUACAGUCCGACGAUCUAGAACCCCGUUCUCGGCCGCGGGACGUCUCGAAGAAAAGAAUAGGAGCGUGUCCCCGGAAACUGAACAACCCCAGCACCGUAGCAGGACCAGGAGGCAUCUGCGGAGACAAUGGGAGCCCAACAGAGGAUUGAGCAUCA
B16: chr11:69803913:69803914:+_ENSMUSG00000018559_ENSMUST00000108593|mus_hu|FALSE|FALSE (ssRNA)
RNA: GGGAGUUCUACAGUCCGACGAUCCCAAAAUCCCAGUAUCCCACCCACAGCCCAGCCCUUGGAGCAGGAGUGAAGAAUUAGAUCAGUUUUGUACAAGAGUUUUUUAAAAAAAAUCAAAUCACAACAAAGCUGACUUGGCUUCUCCAACAGAGGAUUGAGCAUCA
B17: 151572476_151578043_2371_3pUTR_ENSMUSG00000034021_ENSMUST00000016569|mouse|control|control (ssRNA)
RNA: GGGAGUUCUACAGUCCGACGAUCUACAAUGGAUGGCGUAUUUGGCCUGCCGAGGUGGUCCUUUUUUGGAUUUGUGAUGUAGUACAGGAAGCAAGGCUGAUCUGAUGUGAGGGAAAUCCUCUUCAAUUUUGCUUCCUGUGUUUUCAACAGAGGAUUGAGCAUCA
B18: chr16:18254220:18254221:-_ENSMUSG00000022718_ENSMUST00000009321|mus_mus|FALSE|FALSE (ssRNA)
RNA: GGGAGUUCUACAGUCCGACGAUCCCUGUAAGAGACAGGGAGGGCACUGGAGACCAGGAAUGUGUGGCAGCACCUGUUGACAGUGCCUGGGUCGGUGAGGCUGCAGAGAUACCACCAUUACCAUAUGCUUUUUCAAUGUUAAGUCAACAGAGGAUUGAGCAUCA
B19: chr1:60041781:60041782:+_ENSMUSG00000041040_ENSMUST00000036540|mus_hu|mus_mus_mus_hu_False|1_28 (ssRNA)
RNA: GGGAGUUCUACAGUCCGACGAUCAAGUUUACAAUAGUAAAGUAAAUGCAGUAGUGGCAAAUUUUCUUUUAUUUUCCUUCACAAAAGAAAAUCUUUAUAACCCAGUCCAAUCCCAGAACAUAGUGAAAGCUAUAAAUGCCACUGCAACAGAGGAUUGAGCAUCA
B20: chr2:104430793:104430794:+_ENSMUSG00000027176_ENSMUST00000028599|mus_hu|FALSE|FALSE (ssRNA)
RNA: GGGAGUUCUACAGUCCGACGAUCCGUCUCCUGACAUGGCCUCAGCUGAUUACAACGUGCGCACUGACCGUCGAUGGGAAGCUAGAAAAGAAAAAUUAAACUAAAAACCACCCCCAAAUCAGUAAAGUUACCCCCUGCCCAGCUCAACAGAGGAUUGAGCAUCA
B21: 38044239_38044359_1115_3pUTR_ENSMUSG00000058407_ENSMUST00000162031|mouse|control|control (ssRNA)
RNA: GGGAGUUCUACAGUCCGACGAUCGUUUGAAGAUAGAAGAAUCACGUUAUGAUAAAAUCAAUCACAAAAAUAGAGAAUUCAGACCCUCCCAGGUAAUUUAAAGUAUGUUUCUCUCAAGUUAUACACAAUGACUGCAGACAAAAUCAACAGAGGAUUGAGCAUCA
B22: 34975929_34976049_1091_3pUTR_ENSMUSG00000021413_ENSMUST00000077853|mouse|control|control (ssRNA)
RNA: GGGAGUUCUACAGUCCGACGAUCUUGAAGGUGAUUUAAUUGGCUUCUUUUCUUUGUCAAUUUCAGAUCGUUUUGACUUCCGCUCUUUGGACCUUGACCUUCUGUCUUUGGAUUUAUCUCUUAAGUCAACUGGGGACUUGGAUUCAACAGAGGAUUGAGCAUCA

What follows are binders tested against T1, UNK ZnF1-3 (assay: nsRBNS (natural sequence RNA bind-n-seq); RBNS binding buffer (assumed for nsRBNS): 25 mM Tris pH 7.5, 150 mM KCl, 3 mM MgCl2, 0.01% Triton X-100, 500 ug/ml BSA, 20 U/ml SUPERase-In, 4 C; UNK is unkempt and MSI1 is Musashi-1; names of the RNAs are library labels; protein concentration not given here; high values mean tight binding).

Row | Binder | binding signal [enrichment R]
1 | B1 | 1.9
2 | B2 | 1.06
3 | B3 | 1.14
4 | B4 | 2.65
5 | B5 | 1.63
6 | B6 | 1.75
7 | B7 | 0.689
8 | B8 | 1.76
9 | B9 | 1.3
10 | B10 | 0.556
11 | B11 | 1.31
12 | B12 | 0.73
13 | B13 | 0.614
14 | B14 | 0.667
15 | B15 | 1.39
16 | B16 | 1.13
17 | B17 | 0.313
18 | B18 | 1.02
19 | B19 | 0.658
20 | B20 | 2.43
21 | B21 | 1.15
22 | B22 | 0.294
